Laboratory results as given in the supplement of paper PMC4604168 (melanoma cell lines).
This is one part of the list. Single values are uncertain, as repeats are few or missing.

What was measured:
Assay in all cases: cell count relative to DMSO control; melanoma cells; higher = more viable cells
Details in all cases: library dose: low library concentration; 72 h
[1] = test system: WM115
[2] = test system: WM1716
[3] = test system: WM1745
[4] = test system: WM3526
[5] = test system: WM3619
[6] = test system: WM451Lu
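Further: cell number obtained by counting DAPI-stained nuclei in high-throughput microscope images with image analysis software, screen run in 1,536-well plates.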

Row | Structure (SMILES) | cell count [1] [%] | cell count [2] [%] | cell count [3] [%] | cell count [4] [%] | cell count [5] [%] | cell count [6] [%]
1 | OCc1c[nH]c2ccccc12 [Indole-3-carbinol] + Oc1nc(-c2ccc(C(F)(F)F)cc2)nc2c1CSCC2 [XAV939] (first compound 0.8 µM, partner dose 2 µM) | 86.6 | 60.5 | 77.6 | 108 | 95.2 | 101
2 | O=C(CCCCCCC(=O)Nc1ccccc1)NO [vorinostat] + c1cc(-c2cnn3cc(-c4ccc(OCCN5CCCCC5)cc4)cnc23)ccn1 [Dorsomorphin] (first compound 0.08 µM, partner dose 0.4 µM) | 89.8 | 122 | 101 | 83.1 | 94.4 | 91.5
3 | COCC[n+]1c2c(n(Cc3cnccn3)c1C)C(=O)c1ccccc1C2=O + CCc1ccc(CCOc2ccc(CC3SC(=O)NC3=O)cc2)nc1 [pioglitazone] (first compound 0.0004 µM, partner dose 2 µM) | 87.9 | 88.3 | 109 | 105 | 123 | 62
4 | O=C(CCCCCCC(=O)Nc1ccccc1)NO [vorinostat] + N#Cc1c(O)c2c(-c3ccc(-c4ccccc4O)cc3)csc2[nH]c1=O [A769662] (first compound 0.08 µM, partner dose 2 µM) | 99.4 | 127 | 98 | 100 | 109 | 105
5 | C#Cc1cccc(Nc2ncnc3cc(OCCOC)c(OCCOC)cc23)c1 [erlotinib] + Nc1cccc2c1CN(C1CCC(=O)NC1=O)C2=O [lenalidomide] (first compound 0.8 µM, partner dose 1 µM) | 100 | 95.2 | 88.1 | 102 | 84.9 | 116
6 | OCc1c[nH]c2ccccc12 [Indole-3-carbinol] + O=S(=O)(c1ccccc1)N(CC(F)(F)F)c1ccc(C(O)(C(F)(F)F)C(F)(F)F)cc1 [T0901317] (first compound 0.8 µM, partner dose 1.4 µM) | 85 | 105 | 94.7 | 95.5 | 85.8 | 94.5
7 | Nc1cccc2c1CN(C1CCC(=O)NC1=O)C2=O (centres undefined) [lenalidomide] + Cc1ccc(NC(=O)c2cccc(N(C)C)c2)cc1NC(=O)c1ccc(O)cc1 [ZM336372] (first compound 1 µM, partner dose 2 µM) | 114 | 98 | 109 | 106 | 101 | 100
8 | C#Cc1cccc(Nc2ncnc3cc(OCCOC)c(OCCOC)cc23)c1 [erlotinib] + O=C(O)c1ccc(-c2c[nH]c3ncc(-c4ccccc4)cc23)cc1C1CCCC1 [GSK650394] (first compound 0.8 µM, partner dose 0.16 µM) | 89.6 | 94.8 | 75.5 | 101 | 93.7 | 86.9
9 | O=C(CCCCCCC(=O)Nc1ccccc1)NO [vorinostat] + C=CCn1c(=O)c2cnc(Nc3ccc(N4CCN(C)CC4)cc3)nc2n1-c1cccc(C(C)(C)O)n1 [MK1775] (first compound 0.08 µM, partner dose 0.02 µM) | 84.6 | 113 | 88.8 | 95.5 | 97 | 83
10 | Nc1cccc2c1CN(C1CCC(=O)NC1=O)C2=O (centres undefined) [lenalidomide] + COc1ccc(COc2ccc(Cc3cnc(N)nc3N)cc2OC)cc1 [GW2580] (first compound 1 µM, partner dose 1 µM) | 103 | 102 | 91.4 | 78.8 | 110 | 92
11 | Nc1cccc2c1CN(C1CCC(=O)NC1=O)C2=O (centres undefined) [lenalidomide] + COC(=O)c1sccc1S(=O)(=O)Nc1ccc(Nc2ccccc2)cc1OC [GSK0660] (first compound 1 µM, partner dose 1 µM) | 105 | 98.3 | 105 | 114 | 156 | 106
12 | Clc1ccc(Nc2nnc(Cc3ccncc3)c3ccccc23)cc1 [vatalanib] + O=c1cc(-c2cccc3c2Sc2ccccc2S3)oc(N2CCOCC2)c1 [KU55933] (first compound 2 µM, partner dose 1 µM) | 106 | 105 | 84.8 | 90 | 91.4 | 88.1
13 | C#Cc1cccc(Nc2ncnc3cc(OCCOC)c(OCCOC)cc23)c1 [erlotinib] + N#Cc1c(O)c2c(-c3ccc(-c4ccccc4O)cc3)csc2[nH]c1=O [A769662] (first compound 0.8 µM, partner dose 2 µM) | 91.4 | 98.4 | 88.2 | 97 | 129 | 111
14 | Nc1cccc2c1CN(C1CCC(=O)NC1=O)C2=O (centres undefined) [lenalidomide] + O=C(Nc1cccc(Cl)c1)Nc1ncc(CCNc2ncnc3ccsc23)s1 [SNS314] (first compound 1 µM, partner dose 0.0008 µM) | 55.6 | 99.1 | 89 | 81.6 | 94.8 | 93.4
